The other results are listed elsewhere or left out. At the low end of the ranking, values are background and their order means little.

The target of this assay is GST-SBP-SLBP (stem-loop binding protein) (UniProt Q14493). Kind of assay: targeted RNA Bind-n-Seq.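 Further: DESeq read counts versus GST-SBP nonspecific binding control pulldown.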 The conditions noted are these: RBNS binding buffer: 25 mM Tris pH 7.5, 150 mM KCl, 3 mM MgCl2, 0.1% Tween, 0.5 mg/mL BSA, 1 mM DTT; 27 nM protein, 750 pM RNA pool; temperature not stated; high values mean tight binding.
For the sequence “GGUCACGUCUCAAUCAACUCAUCUUCAGGAGUUUUCUCCUGCUUUGUCAACAGCUCGCAGUCAAG”, the binding signal (log2 fold change) was 0.0558. As for “GGUCACGUCUCAAUCAACUCAACGCCAGGAGUUUACUCCUGUAUUUUCAACAGCUCGCAGUCAAG”, the figure is 0.154. The figure for “GGUCACGUCUCAAUCAACUCAAUCUCCAGGGAAACCCCUGGCAUACUCAACAGCUCGCAGUCAAG” is 0.0885; for “GGUCACGUCUCAAUCAACUCAUCUUCAGGAGUUUUCUCCUGUUAAUUCAACAGCUCGCAGUCAAG” it is 0.095; for “GGUCACGUCUCAAUCAACUCAUUCUCCAGGGAAAUCCCUGGCUUUUUCAACAGCUCGCAGUCAAG” it is -0.184.

Regarding “GGUCACGUCUCAAUCAACUCUCACGAGGGGGGGAAAACCCCUUUACCCUCUAUAUCAACAGCUCGCAGUCAAG”, the binding signal (log2 fold change) came out at 0.0435. As for “GGUCACGUCUCAAUCAACUCUUCCUCCAGGGAAAGCCCUGGCUAUGUCAACAGCUCGCAGUCAAG”, the figure is 0.049; as for “GGUCACGUCUCAAUCAACUCAAUCCCAGGAGUUUCCUCCUGUUUACUCAACAGCUCGCAGUCAAG”, -0.095; as for “GGUCACGUCUCAAUCAACUCUACUUCCAGGGAAACCCCUGGUAUUUUCAACAGCUCGCAGUCAAG”, -0.392. On to “GGUCACGUCUCAAUCAACUCUUUUUCCAGGGAAAGCCCUGGUAUUCUCAACAGCUCGCAGUCAAG”, for which the binding signal (log2 fold change) was -0.049.

As for “GGUCACGUCUCAAUCAACUCAUCCCCCAGGGAAAACCCUGGUUAUCUCAACAGCUCGCAGUCAAG”, the binding signal (log2 fold change) is 0.114. As for “GGUCACGUCUCAAUCAACUCAAUCUCCAGGGAAAACCCUGGCUUUCUCAACAGCUCGCAGUCAAG”, the figure is -0.0422; as for “GGUCACGUCUCAAUCAACUCAGUCCCAGGAGUUUCCUCCUGCUAUUUCAACAGCUCGCAGUCAAG”, -0.0518; as for “GGUCACGUCUCAAUCAACUCAUCCUCCAGGGAAACCCCUGGCUUACUCAACAGCUCGCAGUCAAG”, 0.0248. For “GGUCACGUCUCAAUCAACUCAUCGCCAGGAGUUUUCUCCUGCUAUCUCAACAGCUCGCAGUCAAG”, the binding signal (log2 fold change) is -0.0669.

Take “GGUCACGUCUCAAUCAACUCAUUCCCAGGAGUUUCCUCCUGUUAACUCAACAGCUCGCAGUCAAG”: the binding signal (log2 fold change) is -0.0425. The figure for “GGUCACGUCUCAAUCAACUCAAUCCCCAGGGAAAACCCUGGUUUACUCAACAGCUCGCAGUCAAG” is 0.0534. The figure for “GGUCACGUCUCAAUCAACUCAUUCUCAGGAGUUUACUCCUGCAUUUUCAACAGCUCGCAGUCAAG” is -0.111; for “GGUCACGUCUCAAUCAACUCUUCCCCCAGGGAAAACCCUGGUUUACUCAACAGCUCGCAGUCAAG” it is 0.197. The figure for “GGUCACGUCUCAAUCAACUCUACUCCCAGGGAAAUCCCUGGUAAUCUCAACAGCUCGCAGUCAAG” is -0.0786. As to “GGUCACGUCUCAAUCAACUCAGUCUCCAGGGAAAGCCCUGGCAAUUUCAACAGCUCGCAGUCAAG”, the binding signal (log2 fold change) was -0.219.

For the origin of these results see publication PMC5892938.
